Assay results published in PubChem BioAssay (Tox21).
Several values for one entry are separate records, joined by “and”; a condition that tells them apart may be missing. Equal values may be shown once. Inconclusive results, whose numbers are uncertain, are shown with a selection of clear calls. A potency beside an inconclusive call is a rough fit, not a confirmed value. Activity calls are given as the source filed them. Calls come from the whole dose curve; as a rule, active = well fitted activation curve with a large enough effect in the signal ratio in the repeat runs (not every such curve was filed as active); inconclusive = weak or mixed curves; inactive = flat fitted curve, though single readings scatter; the % refers to the signal ratio.

Experiment: qHTS assay to identify small molecule agonists of H2AX (AID 1224845)
Settings: CHO-K1 phospho-H2AX Ser139 HTRF, 3 h; activation (H2AX phosphorylation): at 154 µM (top of the series) unless noted
How it was run: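 Phospho-H2AX Ser139 measured by HTRF (ex 320 nm; em 665 and 620 nm) after 24 hr antibody incubation. Compounds, 15 concentrations, 0.76% DMSO, were applied to CHO-K1 cells for 3hr at 37C before lysis.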
% is set by controls: 0 for no effect and ±100 for the full control effect; potency is the fitted concentration of half-maximal effect; tags give direction and shape of the fitted curve or compound fluorescence and quenching.

| Structure (SMILES) | Potency | activation (H2AX phosphorylation) |
| --- | --- | --- |
| Nc1cccc(C(F)(F)F)c1 | inconclusive: 41.4 µM [rising, partial curve, poor fit] |  |
| O=[N+]([O-])c1ccc(Oc2ccc([N+](=O)[O-])cc2)cc1 |  | inactive: -3.04% |
| O=S(=O)(O)C(F)(F)F |  | inactive: 0.965% |
| CC(C)=CCC/C(C)=C\C#N |  | inactive: -3.79% |
| NCCN | inactive |  |
| Cc1c[nH]c(=O)[nH]c1=O |  | inactive: -1.79% |
| O=C1c2ccccc2CCc2ccccc21 | inconclusive: 57.8 µM [fluorescent, partial curve] and inconclusive: 39.1 µM |  |
| CC[C@H](NC(C)C)[C@H](O)c1ccc(O)c2[nH]c(=O)ccc12 |  | inactive: -0.0529% [at 70.9 µM] |
| CCC[C@H](N[C@@H](C)C(=O)N1[C@H](C(=O)O)C[C@@H]2CCCC[C@@H]21)C(=O)OCC | inactive |  |
| O=c1[nH][nH]c2ccccc12 | inconclusive: 129 µM [single point] |  |
